Laboratory results published in article PMC10340229, “EpoR Activation Stimulates Erythroid Precursor Proliferation by Inducing Phosphorylation of Tyrosine-88 of the CDK-Inhibitor p27^Kip1” (Cells, 2023).

Target: T1, GST–hIC EpoR (273–508aa), cytoplasmic domain of human EpoR (human, UniProt P19235 273-508)
T1 construct: also called GST–EpoR; source: E. coli BL21, purified on glutathione Sepharose beads
T1 sequence (looked up): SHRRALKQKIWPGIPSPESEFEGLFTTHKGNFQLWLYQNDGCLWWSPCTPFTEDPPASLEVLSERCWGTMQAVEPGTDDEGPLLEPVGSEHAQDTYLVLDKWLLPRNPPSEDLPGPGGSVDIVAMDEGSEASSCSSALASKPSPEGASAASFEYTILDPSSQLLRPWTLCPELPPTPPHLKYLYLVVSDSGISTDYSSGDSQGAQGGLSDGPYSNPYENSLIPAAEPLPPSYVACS
Assay: pull-down; GST fusion proteins bound on glutathione Sepharose beads incubated for 2 h at 4 °C with purified bacterial p27, p27 mutants or p27 fragments; extensive washing; bound p27 detected by Western blot
Conditions: both partners purified

binding result: binds
B1: His–tagged p27 N–terminus ([…]) (domain or fragment)
chain: not shown
notes: also called N–terminal p27; source: bacteria, purified by heat treatment
